{"source": "the RNAGym collection of RNA variant scans (doi:10.1093/nar/gkz1192)", "parents": {"B1": {"name": "CPEB3 Ribozyme (parent)", "chain": "UAACAGGGGGCCACAGCAGAAGCGUUCACGUCGCAGCCCCUGUCAGAUUCUGGUGAAUCUGCGAAUUCUGCUGUAUAUCUC"}}, "note": "Read counts are not given, so values of variants with three or more changes are uncertain.", "data": [{"variants_of": "B1", "test": "self-cleavage, relative activity (ratio to wild type); higher = more cleavage; in vitro, sequencing", "procedure,_shortened": "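Barcoded CPEB3 ribozyme mutants, produced by rounds of error-prone PCR, self-cleaved while being transcribed with T7 RNA polymerase for 5 hours at 37°C and during a subsequent 15 min DNase I step before EDTA was added. Sequencing of template-switched cDNA on Illumina gave cleaved and total reads, and DNA sequencing assigned barcodes to variants. Each variant's relative activity is its cleaved/total read fraction divided by the unmutated ribozyme's fraction, averaged across three batches. A variant needed a minimum of 5 reads.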", "values": [{"variant": "U41C A45G U51C A65G", "self-cleavage": 0.2}, {"variant": "C37U U72C G73C", "self-cleavage": 1.04}, {"variant": "C38U A45U U54A U74A", "self-cleavage": 0.16}, {"variant": "C39A U43C U60A U74A", "self-cleavage": 0.19}, {"variant": "C37U U51A U69A U72C A75G", "self-cleavage": 0.11}, {"variant": "U41A A45G A57G U78C", "self-cleavage": 0.22}, {"variant": "U41C A45U G70A A77G", "self-cleavage": 0.32}, {"variant": "C40U U41A U67C", "self-cleavage": 0.14}, {"variant": "U41C A45U U69C", "self-cleavage": 0.27}, {"variant": "U41A U43A C44U U54A", "self-cleavage": 0.21}, {"variant": "C37U U49C G53U U66C U80C", "self-cleavage": 0.1}, {"variant": "C39A U49A A56G", "self-cleavage": 0.17}, {"variant": "C39U A45U G53A U60C U72C", "self-cleavage": 0.31}, {"variant": "U41C A45G U54C", "self-cleavage": 0.96}, {"variant": "U41A A47C U49C U69C A77G", "self-cleavage": 0}, {"variant": "C39U U51A A56U U60C", "self-cleavage": 0.1}, {"variant": "U41A A56G U67A U78A", "self-cleavage": 0.05}, {"variant": "C37U U43C U72A U78A", "self-cleavage": 0.1}, {"variant": "C38U A56G C62U A64G U78A C81U", "self-cleavage": 0.05}, {"variant": "C40A U60C U66A U74G", "self-cleavage": 0.09}, {"variant": "C38A U66G U76C A77U", "self-cleavage": 0.06}, {"variant": "C40U U48C U60A U78C", "self-cleavage": 0.09}, {"variant": "C39A A47G U51A", "self-cleavage": 0.26}, {"variant": "U41A A57G A64U A65U G73A", "self-cleavage": 0.06}, {"variant": "C40G A47U U72C", "self-cleavage": 0.04}, {"variant": "C38U A45C U48G U51A", "self-cleavage": 0.15}, {"variant": "U41A A57C U69C U74A", "self-cleavage": 0.09}, {"variant": "C38U U67A G70A", "self-cleavage": 0.41}, {"variant": "C38U U49A C50A", "self-cleavage": 0.21}, {"variant": "U41C A47G U49A A56G U74A", "self-cleavage": 0.48}, {"variant": "C38U G46A U66C A77U", "self-cleavage": 0.06}, {"variant": "U41A U43A U60A C71U", "self-cleavage": 0.12}, {"variant": "C39A U43C G53A", "self-cleavage": 0.26}, {"variant": "C37U G63U U80C", "self-cleavage": 0.99}, {"variant": "C37U C38G U43A", "self-cleavage": 0.34}, {"variant": "C38G U43C U58C", "self-cleavage": 0.15}, {"variant": "C40U U41C U69C", "self-cleavage": 0.49}, {"variant": "C38U U66C U72C", "self-cleavage": 0.24}, {"variant": "C38U A47G U66C U80G", "self-cleavage": 0.16}, {"variant": "C39A U41A A75G", "self-cleavage": 0.07}, {"variant": "U41C A47G U48C G52A U54C A64G", "self-cleavage": 0.14}, {"variant": "C40A U41G U69A U80A", "self-cleavage": 0.18}, {"variant": "C37U U43C U60A U69C U72A", "self-cleavage": 0.06}, {"variant": "U41A U69C U74C", "self-cleavage": 0.18}, {"variant": "U41A A45U G63A", "self-cleavage": 0.13}, {"variant": "C38U U66C G70A", "self-cleavage": 0.19}, {"variant": "U41A U51A U54C", "self-cleavage": 0.36}, {"variant": "C40U G52A A56G U69A U74C", "self-cleavage": 0.27}, {"variant": "C40U C44U C68U U80A", "self-cleavage": 0.08}, {"variant": "U41C A45G G55U", "self-cleavage": 0.78}, {"variant": "C38G C40G U41C U49C G73A U78G C81U", "self-cleavage": 0.06}, {"variant": "U41A U51A A64G A75G", "self-cleavage": 0.09}, {"variant": "U41A A45U A64U U66A U69C U78C", "self-cleavage": 0.07}, {"variant": "U41A A47U A57U U60G", "self-cleavage": 0.1}, {"variant": "C40A A45G U60C", "self-cleavage": 0.23}, {"variant": "U41A U67C A75G", "self-cleavage": 0.21}, {"variant": "U41A U78C U80C", "self-cleavage": 0.2}, {"variant": "C40U A45U A64G", "self-cleavage": 0.42}, {"variant": "U41A A56G U78C", "self-cleavage": 0.17}, {"variant": "C40U U49C U69A", "self-cleavage": 0.16}, {"variant": "U41A A47G A77G", "self-cleavage": 0.14}, {"variant": "U41A A56U U80A", "self-cleavage": 0}, {"variant": "C38G U54C C62A G73A", "self-cleavage": 0.06}, {"variant": "C39U A45G U48A U51G U80A", "self-cleavage": 0.09}, {"variant": "C40A A45G U48C U58C A64G U67C U76C", "self-cleavage": 0.17}, {"variant": "C40A U41C U49C A56G", "self-cleavage": 0.22}, {"variant": "C38A U54A U78C", "self-cleavage": 0.16}, {"variant": "C39G U41A C68U U76A", "self-cleavage": 0.06}, {"variant": "U41C A56G A57U", "self-cleavage": 0.26}, {"variant": "C39A U49G U72C", "self-cleavage": 0.06}, {"variant": "C40G A45U U69G", "self-cleavage": 0.12}, {"variant": "C37U U43C U72A", "self-cleavage": 0.39}, {"variant": "C39U U51C C62U", "self-cleavage": 0.34}, {"variant": "U41A U43C U51C U54C C62G U76G", "self-cleavage": 0.23}, {"variant": "U41A U43C U48A U66C U78C", "self-cleavage": 0.15}, {"variant": "C38U C62U A75U", "self-cleavage": 0.56}, {"variant": "U41A U66A U67C U80C", "self-cleavage": 0.09}, {"variant": "C40A U43C U60G C62A A75C", "self-cleavage": 0.1}, {"variant": "U41A C44A A45G A65G U69C G73A", "self-cleavage": 0.07}, {"variant": "U41A U54A A56G U60C", "self-cleavage": 0.1}, {"variant": "C40U C44A A57G", "self-cleavage": 0.1}, {"variant": "C39A A45G U74C", "self-cleavage": 0.55}, {"variant": "U41A U43C U67C", "self-cleavage": 0.06}, {"variant": "C40U U41C U67C C68G U78C", "self-cleavage": 0.15}]}]}
